Results taken from patent US20250145701A1 (REMEGEN SHANGHAI, published 2025).

Key:
[1] = target: T1, human PD-1 (ACRO, His tag) (human, UniProt Q15116 in part); experiment: bridging ELISA: human PD-1-His coated at 1 ug/mL, antibody, then biotinylated human VEGF at 50 ng/ml and streptavidin-HRP, OD450
T1 construct: Bought protein; not shown: His tag
Description: The order of the binding to VEGF and PD-1 was changed for dual ELISA detection. A 96-well ELISA plate was coated with 1 μg/mL human PD-1 (ACRO, His tag) overnight, washed and blocked for 1 hour. […] TMB solution was added for color development, and the OD450 nm absorbance value was read on a microplate reader.

[2] = target: T2, monkey PD-1 (ACRO, His tag) (monkey, UniProt B0LAJ3 25-170); experiment: ELISA, monkey PD-1-His coated at 1 ug/mL, anti-human IgG Fc detection, OD450
T2 construct: Bought protein
T2 sequence (B0LAJ3 entry or part of it limits assumed, form in doubt): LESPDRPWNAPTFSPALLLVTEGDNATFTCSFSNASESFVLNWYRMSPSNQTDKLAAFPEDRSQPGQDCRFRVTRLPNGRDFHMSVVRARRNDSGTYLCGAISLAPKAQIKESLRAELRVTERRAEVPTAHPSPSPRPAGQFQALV
Description: The binding of candidate molecules and competitor to antigens of different species was detected by ELISA. […] The binding of antibodies to monkey PD-1 was detected by ELISA. An ELISA plate was coated with 1 μg/mL monkey PD-1 (ACRO, His tag) overnight and blocked. Subsequently, the plate was added with gradient dilutions of the sample to be tested and the control antibody, incubated and washed. Then, the plate was added with HRP-labeled anti-human IgG Fc secondary antibody, incubated and washed. After TMB solution was added for color development, the OD450 absorbance value was read on a microplate reader (see Table 15).

[3] = target: T3, human VEGF (ACRO, His tag) (human, UniProt P15692-4 27-191, limits assumed); experiment: ELISA, human VEGF-His coated at 50 ng/ml, anti-human IgG Fc detection, OD450
T3 construct: Bought protein; not shown: His tag
T3 sequence (looked up): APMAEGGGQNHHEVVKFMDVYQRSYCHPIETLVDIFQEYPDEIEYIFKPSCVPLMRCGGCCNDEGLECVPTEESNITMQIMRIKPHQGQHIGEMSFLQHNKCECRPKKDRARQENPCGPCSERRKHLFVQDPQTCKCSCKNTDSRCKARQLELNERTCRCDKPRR

[4] = target: VEGF (species and construct not stated); experiment: cell-based or functional assay
[5] = target: T1, human PD-1 (ACRO, His tag); experiment: ELISA, human PD-1-His coated at 1 ug/mL, anti-human IgG Fc detection, OD450
T1 sequence (Q15116 25-167 limits assumed): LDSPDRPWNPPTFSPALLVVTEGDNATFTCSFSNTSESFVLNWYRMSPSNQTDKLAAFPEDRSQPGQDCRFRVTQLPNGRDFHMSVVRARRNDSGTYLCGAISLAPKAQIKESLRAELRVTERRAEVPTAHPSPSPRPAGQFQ
Description: The binding of the antibody to human PD-1 was detected by ELISA. 1 μg/mL human PD-1 (ACRO, His tag) was coated on an ELISA plate overnight and blocked. Subsequently, the plate was added with gradient dilutions of the bispecific antibody and the control antibody, incubated and washed. Then, the plate was added with HRP-labeled anti-human IgG Fc secondary antibody, incubated and washed. After TMB solution was added for color development, the OD450 absorbance value was read on a microplate reader (see Table 12). […] Subsequently, the plate was added with gradient dilutions of the sample to be tested and the control antibody, incubated and washed. Then, the plated was added with HRP-labeled anti-human IgG Fc secondary antibody, incubated and washed. After TMB solution was added for color development, the OD450 absorbance value was read on a microplate reader (see Table 13). […] (The control substances were all obtained by in-house expression and purification)

B1: bispecific antibody AK112 analog targeting PD-1 and VEGF (bispecific antibody, human IgG1, kappa)
heavy: EVQLVESGGGLVQPGGSLRLSCAASGYTFTNYGMNWVRQAPGKGLEWVGWINTYTGEPTYAADFKRRFTFSLDTSKSTAYLQMNSLRAEDTAVYYCAKYPHYYGSSHWYFDVWGQGTLVTVSSASTKGPSVFPLAPSSKSTSGGTAALGCLVKDYFPEPVTVSWNSGALTSGVHTFPAVLQSSGLYSLSSVVTVPSSSLGTQTYICNVNHKPSNTKVDKKV[human IgG1 Fc with changes left out]GGGGSGGGGSGGGGSGGGGSEVQLVESGGGLVQPGGSLRLSCAASGFAFSSYDMSWVRQAPGKGLDWVATISGGGRYTYYPDSVKGRFTISRDNSKNNLYLQMNSLRAEDTALYYCANRYGEAWFAYWGQGTLVTVSSGGGGSGGGGSGGGGSGGGGSDIQMTQSPSSMSASVGDRVTFTCRASQDINTYLSWFQQKPGKSPKTLIYRANRLVSGVPSRFSGSGSGQDYTLTISSLQPEDMATYYCLQYDEFPLTFGAGTKLELK
light: DIQMTQSPSSLSASVGDRVTITCSASQDISNYLNWYQQKPGKAPKVLIYFTSSLHSGVPSRFSGSGSGTDFTLTISSLQPEDFATYYCQQYSTVPWTFGQGTKVEIKRTVAAPSVFIFPPSDEQLKSGTASVVCLLNNFYPREAKVQWKVDNALQSGNSQESVTEQDSKDSTYSLSSTLTLSKADYEKHKVYACEVTHQGLSSPVTKSFNRGEC
notes: Prepared in-house as a control; An anti-PD-1 scFv is fused to the heavy chain C-terminus
[1]
  TOP OD: 3.42 OD
[2]
  TOP OD: 2.56 OD
[3]
  TOP OD: 2.68 OD
[4]
  maximum inhibition rate of HUVEC proliferation: ~40%
[5]
  TOP OD: 2.19 OD
